Read counts are not given, so values of variants with three or more changes are uncertain.
B1: CPEB3 Ribozyme (parent)
chain: UAACAGGGGGCCACAGCAGAAGCGUUCACGUCGCAGCCCCUGUCAGAUUCUGGUGAAUCUGCGAAUUCUGCUGUAUAUCUC

Variants of: B1
Assay: self-cleavage, relative activity (ratio to wild type); higher = more cleavage; in vitro, sequencing
Procedure, shortened: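 CPEB3 self-cleaving ribozyme mutant libraries were made by rounds of error-prone PCR, barcoded, and transcribed in vitro with T7 RNA polymerase for 5 hours at 37°C. Cleavage occurred during transcription and a 15 min DNase I step before EDTA stop. RNAs were reverse transcribed with template switching and Illumina-sequenced, with DNA sequencing mapping barcodes to variants. Relative activity is the variant's cleaved/total read fraction divided by wild type's (minimum 5 reads), averaged across three batches.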

Row | Variant | self-cleavage
1 | UAACAGGGGGCUUCAGCAGAAGCGUCCACGUCGCAGCCCCUGUCAGAUCCUGGUGAAUCUGCGAAUCCUGCUGUAUAUCUC [C12U A13U U26C U49C U67C] | 0.11
2 | UAACAGGGGGCGACAGCAGAAGCGUUCUCGUCGCAGCCCCUGUCGGAUUCUGGUGAAUCUGCGGAUUCUGCUGUAUAUCUC [C12G A28U A45G A64G] | 0.22
3 | UAACAGGGGGCUACUGUAGAAGCGUUCACGUCGCAGCCCCUGUCAGAUUCUGGUGAAUCUGCGAAUCCUGCUGUAUAUCUC [C12U A15U C17U U67C] | 0.06
4 | UAACAGGGGGCAACAGGAGCAGCGUUCUCGUCGCAGCCCCUGUCAGAUUCUGGUGAAUCUGCGAAUUCUGCUGUAUAUCUC [C12A C17G A20C A28U] | 0.28
5 | UAACAGGGGGCUACAGCGGAAGCAUUCACGUCGCGGCCCCUGUCAGAUUCUGGUGAAUCUGCGGACUCUGCCGUAUAUCUC [C12U A18G G24A A35G A64G U66C U72C] | 0.1
6 | UAACAGGGGGCGACAGCAGAAGCGUUCACGUCGAAGCCCCUGCCGGAUCCUGGUGAAUCUGCGAAUUCUGCUGUAUGUCUC [C12G C34A U43C A45G U49C A77G] | 0.03
7 | UAACAGGGGGCGACAGCAGAAGCGUUCACGUCGCAGCCCCAGUCAGAUUCUGGUGAAUCUGCGGACUCUGCAGUAUAUCUC [C12G U41A A64G U66C U72A] | 0.05
8 | UAACAGGGGGCAACAGCAGAAGCGUUCACGCCGCUGCCCCUGUCAGAUUCUGGUGAAUCUGCGAAUUCUGCUGUAUAUCUC [C12A U31C A35U] | 1.21
9 | UAACAGGGGGCGACAGCUGAAGCGUUCACGUCGCAGCCCCUGUCAGAUUCUGGUGAGUCUGCGAAUUCUGCUGUAUAUCCC [C12G A18U A57G U80C] | 0.16
10 | UAACAGGGGGCGACAGCGGAAGCGUUCACGUCGCAGCCCCUGUCAGAUUCUGGCGAAUCUGCGAAUUCUGCUAUAUAUCUC [C12G A18G U54C G73A] | 0.57
11 | UAACAGGGGGCAACUGCAGAAGCGUUCACGUCGCAGCCCCUGUCAGAUUCUGGUGAAUCUGCGAAUUCUGCAGUAUAUCUC [C12A A15U U72A] | 0.59
12 | UAACAGGGGGCAACAGCAGAAGCGUUCACGUCGCAGCCCUUGUCAGAUUCUGGCGAAUCUGCGAAUUCUGCUGUAUAUCUC [C12A C40U U54C] | 0.74
13 | UAACAGGGGGCUGCAGCAGAGGCGUACACGUCGCAGCCCCUGUCAGAUUCUGGUGAAUCUGCGAUUUCUGCUGUAUAUCUC [C12U A13G A21G U26A A65U] | 0.04
14 | UAACAGGGGGCAACAGCAGAAGCGUCCACGCCGCAGCCCCUGUCAGAUACUGGUGAAUCUGCGAAUUCUACUGUAUAUCUC [C12A U26C U31C U49A G70A] | 0.08
15 | UAACAGGGGGCAACAGCUGAAGCGUUCACGUCGCAGCCCCUGUCAGAUUCUGGUGAAUCUGCGAAUUCUGCUGUAUACCUC [C12A A18U U78C] | 0.42
16 | UAACAGGGGGCGACAGGAGAAGCGCUCACGUCGCAGCCCCUGUCAGAUUCUGGUGAAUCUGCGAAUUCUGCUGUAUAUCCC [C12G C17G U25C U80C] | 0.44
17 | UAACAGGGGGCGACAGGAGAAGCGUUCGCGUCGCAGCCCCUGUCAGAUUCUGGUGAAUCUACGAAUUCUGCUGUAUAUCUC [C12G C17G A28G G61A] | 0.04

Row | Variant | self-cleavage
18 | UAACAGGGGGCGACAGCAGGAGCGUUCACAUCGCGGCCCCUGUCAGAUUCUGGUGAAUCUGCGAAUUCUGCUGCAUAUCUC [C12G A20G G30A A35G U74C] | 0.07
19 | UAACAGGGGGCUGCAGCAGAAGCGUUCACGUCGCGGCCCCUGUCAGGUUCUGGUGAAUCUGCGAAUGCUGCUGUAUAUCCC [C12U A13G A35G A47G U67G U80C] | 0.47
20 | UAACAGGGGGCAACAGCAGAAGCGCUCACGUCGCAGCCCCUGUCAGAUUCUGGUGAAUCUGCGGAUUCUGCUGUAUAUCUC [C12A U25C A64G] | 0.33
21 | UAACAGGGGGCUACGGCAGAAGCGUUCACGUCGCAGCCCCUGCCAGACUCUGGUGUAUCUGCGAAUUCUGCUGUAUAUCUC [C12U A15G U43C U48C A56U] | 0.14
22 | UAACAGGGGGCAACAGCAGAAGCGUUCACGUCGCAGCCCCAGUCAGAUUCUGGUGAGUCUGCGAAUUCUGCUGUAUAUCAC [C12A U41A A57G U80A] | 0.31
23 | UAACAGGGGGCUACGGCAGAAGCGUUCACGUCGCAGCCCCUGUCAGAUUCUGGUGAAUCCGCGAAUUCUGCUGUAUAUCUC [C12U A15G U60C] | 0.18
24 | UAACAGGGGGCGACCGCAGAUGCGUUCACGUCGCAGCCCCUGUCAGAUUCUGGGGAAUCUGCGAAUUCUGCUGUAUAUCUC [C12G A15C A21U U54G] | 0.07
25 | UAACAGGGGGCUACGGCAGAAGCGUUCACGUCACAGCCCCUGUCAGAUUCUGGUGAAUCUGCGAAUUCUGCUGUAUAUCUC [C12U A15G G33A] | 0.05
26 | UAACAGGGGGCAACAGCAGAAGCGUUCACGUCGCAGCCCCUGUCAGAUCAUGGUGAAUCUGCGAAUUCUGCUGUAUAUCUC [C12A U49C C50A] | 0.93
27 | UAACAGGGGGCAACAGCAGUAGUGUUCACGUCGCAGCCCCUGUAAGAUUCUGGCGAAUCUGCGAACUCUGCUGUAUAUCUC [C12A A20U C23U C44A U54C U66C] | 0.06
28 | UAACAGGGGGCUACAGCGGAGGCGUUCACGUCGCAGCCCCUGUCAGAUUCUGGUGAAUCUGCGAAUUCUGCUGUAUAUCUC [C12U A18G A21G] | 0.32
29 | UAACAGGGGGCGACAGCAGAAGCGUUCACGUCGCAGCCCCGGCCAGAUUCUGGCGAAUCUGCGAAUUCUGCUGUAUAUCUC [C12G U41G U43C U54C] | 0.15
30 | UAACAGGGGGCGACAGCAGAAGCGUUCGCGUCGCAGCCCCCGUCAGACUCUGGUGAAUCUGCGAAUCCUGCUGUAUAUCUC [C12G A28G U41C U48C U67C] | 0
31 | UAACAGGGGGCGACAGCAGAGGCGUUCGAGUCGCAGCCCCCGUCAGAUUCUGGUGAAUCUGCGAAUUCUGCAGUAUAUCUC [C12G A21G A28G C29A U41C U72A] | 0.02
32 | UAACAGGGGGCGACAGCAGAAGCGUUCACGUCGCAGCCCCGGUCAGAUUCUGGUGAAUCUGCGAAUUCUGCUGUAAAUCUC [C12G U41G U76A] | 0.31
33 | UAACAGGGGGCAACAGCAGAAGCGUUCCCGUCGCAGCCCCUGUCGGAUUCUGGUGAAUCUGCGAAUUCUGCUGUAUAUCUC [C12A A28C A45G] | 0.4
34 | UAACAGGGGGCAACAGCGGAAGCGUUCGCGUCGCAGCCCCUGUCAGAUUCUGGUGAAUCUGCGAAAUCUGCUGUAUACCUC [C12A A18G A28G U66A U78C] | 0.14
